Measurements published in the RNAGym collection of RNA variant scans (doi:10.1073/pnas.2313332121).
This sample is rich in variants without activity.

B1: TPR 5TU (parent)
chain: GGAUCUUCUCGAUCUAACAAAAAAGACAAAUCUGCCACAAAGCUUGAGAGCAUCUUCGGAUGCAGAGGCGGCAGCCUUCGGUGGCGCGAUAGCGCCAACGUUCUCAACUAUGACACGCAAAACGCGUGCUCCGUUGAAUGGAGUUUAUCAUG

Variants of: B1
Test: polymerase ribozyme fitness, log enrichment relative to wild type (log ratio); higher = more active; in vitro selection for triplet polymerase activity
How it was run: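 Mutant libraries of both subunits of a heterodimeric triplet polymerase ribozyme were PCR-built, transcribed, and selected once in triplicate, with frozen incubation at −7 °C and capture of gel-excised extended constructs on streptavidin beads before RT-PCR. Illumina sequencing of input and output libraries was filtered to genotypes with ≥10 input reads and ≥1 read per output. Fitness is the logarithm of genotype enrichment over wild-type enrichment, using inverse-variance-weighted replicate averages. The logarithm is base 2.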

| Variant | polymerase ribozyme fitness (log ratio) |
| --- | --- |
| GGAUCUUCUCGAUCUAACAAAAAAGACAAAUCUGCCACAAAGCUUGAGAGCAUCUUCAGAUGCAGAGGCGGCAGCCUGCGGUGGCGUGAUAGCGCCAACGUUCUCAACUAUGACACGCAAAACGCGUGCUCCGUUGAAUGGAGUUUAUCAUG [G58A U78G C87U] | ≤ -4.2 |
| GGAUCUUCUCGAUCUAACAAAAAAGACAAAUCUGCCACAAAGCUUGAGAGCAUCUUCAGAUGCAGAGGCGGCAGCCUUCGGCUGCGCGAUAGCGCGAACGUUCUGAACUAUGACACGCAAAACGCGUGCUCCGUUGAAUGGAGUUUAUCAUG [G58A U82C G83U C96G C105G] | ≤ -4.2 |
| GGAUCUUCUCGAUCUAACAAAAAAGACAAAUCUGCCACAAAGCUUGAGAGCAUCUUCAGAUGCAGAGGCGGCAGCCUUCGGUGGCGCGAUAGCGCCAACGUUCACAACUAUGACACGCAAAACGCGUGCUCCGUUGAAUGGAGUUUAUCAUG [G58A U104A] | 0.105 |
| GGAUCUUCUCGAUCUAACAAAAAAGACAAAUCUGCCACAAAGCUUGAGAGCAUCUUCCGCUGCAGAGGCGGCAGCCUUCGGUGGCGCGAUAGCACCAACCUUAUCAACUAUGACACGCAAAACGCGUGCUCCGUUGAAUGGAGUUUAUCAUG [G58C A60C G94A G100C C103A] | ≤ -4.2 |
| GGAUCUUCUCGAUCUAACAAAAAAGACAAAUCUGCCACAAAGCUUGAGAGCAUCUUCCGGUGCAGAGGCGGCAGCCUUCGGUGGCGCGGUAGCGCCAACGUUCUCAAUUAUGACACGCAAAACGCGUGCUCCGUUGAAUGGAGUUUCUCAUG [G58C A60G A89G C108U A147C] | ≤ -4.2 |
| GGAUCUUCUCGAUCUAACAAAAAAGACAAAUCUGCCACAAAGCUUGAGAGCAUCUUCCGGUGCAGAGGCGGCAGCCUUCGGUGGAGCGAUAGCGCCAACGUUCUCAACUAUGACACGCAAAACGCGUGCUCCGUUGAAUGGAUUUGAUCAUG [G58C A60G C85A G143U U146G] | ≤ -4.2 |
| GGAUCUUCUCGAUCUAACAAAAAAGACAAAUCUGCCACAAAGCUUGAGAGCAUCUUCCGGUGCAGAGGCGGCAGCCUUCGGUGGCGCGAUAACGCCAACGUUCUCAACUAUGACACGCAAUACGCGUGCUCCGUUGAAUGGAGUUUAUCAUG [G58C A60G G92A A121U] | -2.24 |
| GGAUCUUCUCGAUCUAACAAAAAAGACAAAUCUGCCACAAAGCUUGAGAGCAUCUUCCGAUGCCGAGGGGGCAGCCUUCGGUGGUGCGAUAGCGCCAACGUUCUCAACUUUGACACGCAAAACGCGUGCUCCGGUGAAUGGAGUUUAUCAUG [G58C A64C C69G C85U A110U U134G] | ≤ -4.2 |
| GGAUCUUCUCGAUCUAACAAAAAAGACAAAUCUGCCACAAAGCUUGAGAGCAUCUUCCGAUGCUGAGGCGGCAGCCUUCGGUGGCGCGAUAGCGCCAACGUUCUCAACUAUGACACGCAAAACGCGUGCUCCAUUGAAUGGAGUUUAUCAUG [G58C A64U G133A] | ≤ -4.2 |
| GGAUCUUCUCGAUCUAACAAAAAAGACAAAUCUGCCACAAAGCUUGAGAGCAUCUUCCGAUGCAGCAGCGGCAGCCUUCGGUGGCGCGCUAGCGCCAACGUUCUCAACUACGACAAGCAAAACGCGUGGUCCGUUGAAUGGAGUUUAACAUG [G58C A66C G67A A89C U111C C116A C129G U148A] | ≤ -4.2 |
| GGAUCUUCUCGAUCUAACAAAAAAGACAAAUCUGCCACAAAGCUUGAGAGCAUCUUCCGAUGCAGAGGCGGCGGCCUUCGGUGGCGCGAUAGCGCCAACGCUCUCAACUAUGACACGCAAAACGGGUGCUCCGUUGAAUGGAGUUUAUCAUG [G58C A73G U101C C125G] | -0.932 |
| GGAUCUUCUCGAUCUAACAAAAAAGACAAAUCUGCCACAAAGCUUGAGAGCAUCUUCCGAUGCAGAGGCGGCUGCCUUCGGUGGCGCGAUAGGGCCAACGUCCUCAACUAUGACACGCAAAACGCGUGCUCCGUUGAAUGGAGUUUCUCAUG [G58C A73U C93G U102C A147C] | ≤ -4.2 |
| GGAUCUUCUCGAUCUAACAAAAAAGACAAAUCUGCCACAAAGCUUGAGAGCAUCUUCCGAUGCAGAGGCGGCUGCCUUCGGUGGCGCGAUAACGCCUACGUUCUCAACUAUGACAAGCAAAACGCGUGCUCCGUUGAAUGGAGUUUAUCGUG [G58C A73U G92A A97U C116A A150G] | ≤ -4.2 |
| GGAUCUUCUCGAUCUAACAAAAAAGACAAAUCUGCCACAAAGCUUGAGAGCAUCUUCCGAUGCAGAGGCGGCUGCCUUCGGUGGCGCGAUAUCGCCAACGUUCUCAACUAUGACACGCAAAACGCGUGCUCCCUUGAAUGAAGUUUAUCAUG [G58C A73U G92U G133C G141A] | ≤ -4.2 |
| GGAUCUUCUCGAUCUAACAAAAAAGACAAAUCUGCCACAAAGCUUGAGAGCAUCUUCCGAUGCAGAGGCGGCAGCCUUCGGUGGCGCGCUAGCGUCAACGUUCUCACCUAUGACACGCAAAACGCGUGCUCCGUUGAAUGGAGUUUAUCAUG [G58C A89C C95U A107C] | ≤ -4.2 |
| GGAUCUUCUCGAUCUAACAAAAAAGACAAAUCUGCCACAAAGCUUGAGAGCAUCUUCCGAUGCAGAGGCGGCAGCCUUCGGUGGCGCGAUGGUGCCAACUUUCUCAACUAUGACACGCAAAACGCGUGCUCCGUUGAAUGGAGUUUAUCAUG [G58C A91G C93U G100U] | ≤ -4.2 |
| GGAUCUUCUCGAUCUAACAAAAAAGACAAAUCUGCCACAAAGCUUGAGAGCAUCUUCCGAUGCAGAGGCGGCAGCCUUCGGUGGCGCGAUUGCGCCUACGUUCUCAACUAUGACACGCAAAACGCGUGCUCCGUUGAAUGGAGUUUAUCAUG [G58C A91U A97U] | ≤ -4.2 |
| GGAUCUUCUCGAUCUAACAAAAAAGACAAAUCUGCCACAAAGCUUGAGAGCAUCUUCCGAUGCAGAGGCGGCAGCCUUCGGUGGCGCGAUAGCGCCAACGUUCUCCACUAUGACACGCAAAACGCGUGCUCCGUUGAAUGGAGUUUAUCAUG [G58C A106C] | 0.355 |
| GGAUCUUCUCGAUCUAACAAAAAAGACAAAUCUGCCACAAAGCUUGAGAGCAUCUUCCGAUGCAGAGGCGGCAGCCUUCGGUGGCGCGAUAGCGCCAACGUUCUCAACUAUGACACGCAAAACGCGUGCUCCGUUGAAUGGAGUUUAUCUUG [G58C A150U] | 1.46 |
